{"source": "PubChem BioAssay AID504332", "about": "(National Center for Advancing Translational Sciences (NCATS), 2011)", "note": "Out of some 350,000 compounds screened, about 31,000 (8.9%) were called active. The inconclusive results got no clear call from the source; some entries with a clear call stand among them for comparison. The call rests on the fitted dose curve; in most records, active means well fitted inhibition curve with a large enough effect; inconclusive means small, poorly fitted or top-dose-only effect; inactive means no such curve, though single readings can be large or run the other way. Potencies beside an inconclusive call are fits to weak or partial responses and may not hold up. On the % scale 0 is the no-effect control and ±100 the full control effect; potency means the concentration at half of the fitted maximal effect; tags describe the fitted curve by direction and shape."}
{"biological_target": "Histone-lysine N-methyltransferase EHMT2 (Homo sapiens) (UniProt Q96KQ7)", "sequence (Q96KQ7 whole entry, looked up)": "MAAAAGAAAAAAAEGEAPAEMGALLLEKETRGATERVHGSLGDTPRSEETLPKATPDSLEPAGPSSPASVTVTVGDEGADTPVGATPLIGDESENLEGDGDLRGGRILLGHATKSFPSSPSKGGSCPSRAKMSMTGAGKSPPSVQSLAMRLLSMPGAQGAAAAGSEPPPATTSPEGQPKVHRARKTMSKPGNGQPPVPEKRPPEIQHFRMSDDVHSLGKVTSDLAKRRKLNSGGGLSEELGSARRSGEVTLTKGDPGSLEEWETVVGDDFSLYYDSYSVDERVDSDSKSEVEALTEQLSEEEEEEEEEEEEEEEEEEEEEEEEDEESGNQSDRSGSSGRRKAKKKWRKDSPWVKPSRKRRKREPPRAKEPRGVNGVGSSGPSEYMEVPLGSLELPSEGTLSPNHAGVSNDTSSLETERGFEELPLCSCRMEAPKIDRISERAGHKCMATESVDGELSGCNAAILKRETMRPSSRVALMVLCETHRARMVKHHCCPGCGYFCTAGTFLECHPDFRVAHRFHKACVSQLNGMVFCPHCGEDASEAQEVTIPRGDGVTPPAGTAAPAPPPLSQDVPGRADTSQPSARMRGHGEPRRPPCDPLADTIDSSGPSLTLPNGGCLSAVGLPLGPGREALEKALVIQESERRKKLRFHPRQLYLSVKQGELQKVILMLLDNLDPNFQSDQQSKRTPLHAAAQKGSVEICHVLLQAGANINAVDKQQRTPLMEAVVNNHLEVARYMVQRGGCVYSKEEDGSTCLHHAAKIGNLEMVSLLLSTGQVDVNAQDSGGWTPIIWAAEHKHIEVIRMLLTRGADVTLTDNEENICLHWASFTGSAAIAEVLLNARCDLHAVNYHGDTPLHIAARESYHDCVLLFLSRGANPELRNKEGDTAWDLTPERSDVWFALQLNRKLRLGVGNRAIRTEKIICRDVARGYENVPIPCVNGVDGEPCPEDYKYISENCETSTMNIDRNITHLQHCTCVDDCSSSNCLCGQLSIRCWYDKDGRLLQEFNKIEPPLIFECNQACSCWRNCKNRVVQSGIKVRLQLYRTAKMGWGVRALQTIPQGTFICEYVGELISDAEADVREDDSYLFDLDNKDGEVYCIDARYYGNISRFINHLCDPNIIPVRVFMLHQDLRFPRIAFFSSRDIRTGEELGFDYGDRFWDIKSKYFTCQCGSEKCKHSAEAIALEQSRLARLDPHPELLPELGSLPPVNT", "assay": "qHTS Assay for Inhibitors of Histone Lysine Methyltransferase G9a; further: nearly all actives have a fitted effect of over 75% in size", "conditions": "G9a H3K9 monomethylation, AlphaScreen, 2 h; activity, negative = inhibition: at 59 µM (top of the series) unless noted", "outline": "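G9a (20 nM) was preincubated 15 min with compound, then reacted 2 h at room temperature with 500 nM biotin-H3K9 peptide and 20 µM SAM. Monomethyl-H3K9 detected by AlphaScreen using anti-H3K9me1 antibody.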"}
{"smiles": "Cc1[nH][nH]c(=O)c1C(c1ccc(O)c([N+](=O)[O-])c1)c1c(C)[nH][nH]c1=O", "Potency": "inconclusive: 89.1 µM [inhibitor, single point]"}
{"smiles": "O=C(COc1ccc2c(c1)oc(=O)c1ccccc12)N[C@@H](Cc1ccccc1)C(=O)O", "Potency": "inconclusive: 89.1 µM [inhibitor, single point]"}
{"smiles": "COCCn1cnnc1SCC(=O)Nc1cccc(S(=O)(=O)N2CCCCCC2)c1", "Potency": "inconclusive: 70.8 µM [inhibitor, single point]"}
{"smiles": "CN(C)CCOc1cccc(Br)c1", "Potency": "inconclusive: 10 µM [inhibitor, full curve, poor fit]"}
{"smiles": "Fc1cccc(CCN2CCNC[C@H]2Cc2cccc3ccccc23)c1", "activity, negative = inhibition": "inactive: -5.84% [at 2.33 µM]"}
{"smiles": "CC(Sc1ncccn1)C(=O)N1CCc2ccccc21", "note": "(stereo unspecified)", "Potency": "inconclusive: 56.2 µM [inhibitor, partial curve]"}
{"smiles": "CCc1ccccc1NC(=O)CCS(=O)(=O)c1ccc(OC)cc1", "Potency": "active: 14.1 µM"}
{"smiles": "CNC(=O)NC(=O)C(c1ccccc1)N(C)CC1COc2ccccc2O1", "note": "(stereo unspecified)", "Potency": "inactive"}
{"smiles": "O=c1cc(N=Nc2ccc(Cl)cc2)[nH]c(=O)[nH]1", "Potency": "active: 44.7 µM"}
{"smiles": "CC1=NN(c2ccccc2)C(=O)C1N=Nc1ccc(S(N)(=O)=O)cc1", "note": "(stereo unspecified)", "Potency": "inconclusive: 0.794 µM [inhibitor, partial curve, poor fit]"}
{"smiles": "CCOC(=O)c1[nH]c(C)c(C(=O)N2CCN(c3cccc(Cl)c3)CC2)c1C", "Potency": "inconclusive: 22.4 µM [inhibitor, partial curve, poor fit]"}
{"smiles": "Cc1cc(NC(=O)c2cc(-c3ccccc3Cl)nc3ccccc23)no1", "Potency": "inconclusive: 79.4 µM [inhibitor, single point]"}
{"smiles": "CC12C=CC3(O1)C(C(=O)N(c1cccnc1)C3C(=O)NC1CCCCC1)C2C(=O)Nc1ccccc1", "note": "(stereo unspecified)", "Potency": "inconclusive: 89.1 µM [inhibitor, single point]"}
{"smiles": "CCOc1cccc(OCCCCN2CCOCC2)c1", "activity, negative = inhibition": "inconclusive: -114% [inhibitor]"}
{"smiles": "O=[N+]([O-])c1cccc2nc(-c3ccccc3)c(-c3ccccc3)nc12", "Potency": "active: 39.8 µM"}
{"smiles": "CCOc1ccc(NS(=O)(=O)c2ccc(C(=O)N3CCCCC3)cc2)cc1", "Potency": "inconclusive: 50.1 µM [inhibitor, partial curve, poor fit]"}
{"smiles": "Cc1cccc(NC(=O)COc2ccc(Br)cc2C)n1", "Potency": "inconclusive: 0.1 µM [inhibitor, full curve, poor fit]"}
{"smiles": "CCCCNC(=O)Nc1ccccc1C(=O)NCCC", "Potency": "inactive"}
{"smiles": "Cn1c(=O)oc2cc(S(=O)(=O)N3CCC(C(=O)NCC4COc5ccccc5O4)CC3)ccc21", "note": "(stereo unspecified)", "Potency": "inconclusive: 89.1 µM [inhibitor, single point]"}
{"smiles": "COc1ccc(C(CNc2ccc(S(=O)(=O)N3CCCC3)cc2[N+](=O)[O-])N2CCCC2)cc1", "note": "(stereo unspecified)", "Potency": "inconclusive: 28.2 µM [inhibitor, single point]"}
{"smiles": "O=C(/C=C/c1cccc(Cl)c1)NCCN1CCOCC1", "Potency": "inactive"}
{"smiles": "O=C(N/C(=C/c1cccs1)C(=O)N1CCOCC1)c1ccccc1", "Potency": "inconclusive: 50.1 µM [inhibitor, partial curve, poor fit]"}
{"smiles": "O=C(c1ccccc1)N1CCN(Cc2ccccc2Br)CC1", "Potency": "inconclusive: 5.01 µM [inhibitor, single point]"}
{"smiles": "O=C(NC(Cc1c[nH]c2ccccc12)c1nnc2n1CCCCC2)c1ccc(Cl)cc1", "note": "(stereo unspecified)", "Potency": "inactive"}
{"smiles": "COc1ccc2nc(C)cc(NCc3cccc(C(F)(F)F)c3)c2c1", "Potency": "inconclusive: 89.1 µM [inhibitor, single point]"}
{"smiles": "COc1cc(C(=O)NNC(=S)NC(=O)c2ccc(Cl)cc2)cc(OC)c1OC", "Potency": "inconclusive: 22.4 µM [inhibitor, single point]"}
{"smiles": "O=C(Oc1cccnc1)c1cc(S(=O)(=O)N2CCOCC2)ccc1Cl", "activity, negative = inhibition": "inactive: -7.7% [at 2.33 µM]"}
{"smiles": "CCCN(CC(=O)Nc1ccccc1C)C(=O)CCN1C(=O)c2cccc([N+](=O)[O-])c2C1=O", "Potency": "inconclusive: 89.1 µM [inhibitor, single point]"}
{"smiles": "O=C(CN(C(=O)C1COc2ccccc2O1)c1ccccc1)NCC1CCCO1", "note": "(stereo unspecified)", "Potency": "inactive"}
{"smiles": "CC1CCN(C(=O)c2ccc3c(c2)OCO3)CC1", "Potency": "inconclusive: 56.2 µM [inhibitor, partial curve, poor fit]"}
{"smiles": "CC(C)NCc1c(O)c(Br)cc2oc3c(c12)CCCC3", "Potency": "inconclusive: 5.62 µM [inhibitor, full curve, poor fit]"}
{"smiles": "Cc1cccc(/C=N/NC(=O)c2ccncc2)n1", "Potency": "inactive"}
{"smiles": "Cc1cc(C)c2nc3sc(C(=O)N4CCOCC4)c(N)c3cc2c1", "activity, negative = inhibition": "inconclusive: -80.2% [inhibitor]"}
{"smiles": "COC(=O)c1ccsc1NC(=O)CCS(=O)(=O)c1ccccc1", "Potency": "inconclusive: 56.2 µM [inhibitor, partial curve, poor fit]"}
{"smiles": "COc1ccc(Cc2n[nH]c(=S)n2C)cc1Br", "Potency": "inconclusive: 50.1 µM [inhibitor, partial curve, poor fit]"}
{"smiles": "CC(/C=C/c1ccccc1)=N/NC(=O)c1cc([N+](=O)[O-])cc([N+](=O)[O-])c1", "Potency": "inactive"}
{"smiles": "CCc1ccc2ncc3c(-c4ccc(C)cc4)nn(CC(=O)NCc4ccccc4)c3c2c1", "Potency": "inactive"}
{"smiles": "CCOc1ccc(NC(=O)CSc2nc3c(c(=O)n2-c2ccccc2OC)SCC3)cc1", "Potency": "active: 31.6 µM"}
{"smiles": "CCOC(=O)c1ccc(NC(=O)c2nc[nH]c2C(=O)N(CC)CC)cc1", "activity, negative = inhibition": "inconclusive: -60.7% [inhibitor]"}
{"smiles": "O=C(Cc1ccc(Br)cc1)N1CCCCCC1", "activity, negative = inhibition": "inactive: 6.69% [at 12.7 µM]"}
{"smiles": "O=C(CCc1ccc(S(=O)(=O)N2CCOCC2)cc1)Nc1ccc2ccccc2c1", "Potency": "inconclusive: 25.1 µM [inhibitor, single point]"}
{"smiles": "Cc1cc(C)c(S(=O)(=O)NC(CC(=O)O)c2cccc([N+](=O)[O-])c2)c(C)c1", "note": "(stereo unspecified)", "Potency": "inconclusive: 89.1 µM [inhibitor, partial curve, poor fit]"}
{"smiles": "O=C1CCCN1CCCNC(=S)Nc1ccc(Br)cc1Cl", "Potency": "inconclusive: 56.2 µM [inhibitor, partial curve, poor fit]"}
{"smiles": "CC(C)CCNC(=O)Cn1nc(N2CCN(c3ccccc3)CC2)ccc1=O", "Potency": "inactive"}
{"smiles": "COc1cccc(NC(=S)Nc2ccc(O)cc2)c1", "Potency": "active: 8.91 µM"}
{"smiles": "Cc1ccc(C(=O)O/N=C(\\N)c2ccc(Br)cc2)cc1", "Potency": "inconclusive: 89.1 µM [inhibitor, partial curve, poor fit]"}
{"smiles": "Cc1ccc(-c2nnc(SCC(=O)NC3CCCc4ccccc43)n2N)cc1", "note": "(stereo unspecified)", "Potency": "inconclusive: 39.8 µM [inhibitor, single point]"}
{"smiles": "Cc1cc(C(=O)COC(=O)CC2Sc3ccccc3NC2=O)c(C)n1-c1ccccc1", "note": "(stereo unspecified)", "Potency": "inconclusive: 25.1 µM [inhibitor, single point]"}
{"smiles": "Cc1cc2n(n1)C(c1ccco1)Nc1ccccc1-2", "note": "(stereo unspecified)", "Potency": "inconclusive: 89.1 µM [inhibitor, partial curve, poor fit]"}
{"smiles": "COc1ccc(OC)c(NC(=O)CCN2CCN(Cc3ccccc3)CC2)c1", "Potency": "active: 50.1 µM"}
{"smiles": "O=C(Nc1ccc2[nH]c3c(c2c1)CCCC3)c1ccco1", "Potency": "inconclusive: 3.16 µM [inhibitor, partial curve, poor fit]"}
{"smiles": "COCCn1nnnc1SCC(=O)c1ccccc1", "activity, negative = inhibition": "inactive: 38.2% [at 2.33 µM]"}
{"smiles": "COc1ccc(OCC(=O)NCc2n[nH]c(=O)c3ccccc23)cc1", "activity, negative = inhibition": "inactive: 8.81% [at 0.501 µM]"}
{"smiles": "O=C(NCc1ccc2c(c1)OCO2)c1cnc2n(c1=O)CCS2", "Potency": "inconclusive: 89.1 µM [inhibitor, single point]"}
{"smiles": "O=C(CSc1nc2ccccc2n1Cc1cccc(F)c1)NCc1ccccc1", "Potency": "inactive"}
{"smiles": "Cc1oc2cc(OC(=O)c3ccco3)ccc2c(=O)c1-c1nc2ccccc2n1C", "Potency": "inconclusive: 89.1 µM [inhibitor, partial curve, poor fit]"}
{"smiles": "COc1ccc(S(=O)(=O)NCc2nc(-c3ccccc3)no2)cc1", "Potency": "inactive"}
{"smiles": "O=C(NC(Cc1ccccc1)C(=O)O)/C(=C/c1ccco1)NC(=O)c1cccc([N+](=O)[O-])c1", "note": "(stereo unspecified)", "Potency": "active: 44.7 µM"}
{"smiles": "CC1CCC(NC(=O)COC(=O)CCC(=O)c2ccc(Cl)s2)CC1", "note": "(stereo unspecified)", "Potency": "inconclusive: 79.4 µM [inhibitor, partial curve, poor fit]"}
{"smiles": "Cc1[nH]c2ccc(-c3n[nH]c(=S)n3Cc3ccccc3)cc2c1C", "Potency": "active: 7.94 µM"}
{"smiles": "Cc1cc(C)n(-c2nnc(C)c(=O)[nH]2)n1", "Potency": "active: 2 µM"}
{"smiles": "Cc1sc2nc(CC(=O)NN)[nH]c(=O)c2c1C", "Potency": "active: 39.8 µM"}
{"smiles": "COc1cc(CNC(=O)c2cc3n(n2)CCCN(Cc2cccc(F)c2)C3=O)cc(OC)c1OC", "Potency": "inactive"}
{"smiles": "CC(=O)c1cccc(NC(=O)CSc2ncc3c(n2)-c2cc(Cl)ccc2N(Cc2ccccc2)S3(=O)=O)c1", "Potency": "inactive"}
{"smiles": "CSc1ccc(CN2CCCCCC2)cc1", "Potency": "active: 11.2 µM"}
{"smiles": "Cc1ccc(-n2nc(C)cc2NC(=O)c2ccc(C)s2)cc1", "Potency": "active: 79.4 µM"}
{"smiles": "COCCCn1c(C(=O)NCCN2CCOCC2)cc2c(=O)n3cccc(C)c3nc21", "Potency": "inactive"}
{"smiles": "Cn1cccc1-c1cc(C(=O)N/N=C/c2ccc(F)cc2)[nH]n1", "Potency": "inconclusive: 17.8 µM [inhibitor, partial curve, poor fit]"}
{"smiles": "Cc1ccc(NC(=O)c2ccc(CN3CC(=O)N4CCCCC4C3=O)cc2)c(Cl)c1", "note": "(stereo unspecified)", "Potency": "inactive"}
{"smiles": "CN1CCN(C(=O)c2ccc3c(c2)N(Cc2ccc(C(F)(F)F)cc2)C(=O)c2ccccc2S3)CC1", "Potency": "inconclusive: 22.4 µM [inhibitor, single point]"}
{"smiles": "COc1ccc(OC)c(C2C(C(=O)Nc3ccc(C)cc3)=C(C)Nc3nnnn32)c1", "note": "(stereo unspecified)", "Potency": "inactive"}
